The values that follow come from PubChem BioAssay AID1508623 (National Center for Advancing Translational Sciences (NCATS), 2021).

The campaign covered roughly 48,000 compounds. About 450 (0.94%) were called active. Not shown: some 19% with an inconclusive outcome. Calls follow the shape of the dose curve; as a rule, active = well fitted inhibition curve with a large enough effect; inconclusive = small, poorly fitted or top-dose-only effect; inactive = no such curve, though single readings can be large or run the other way. Some of the results follow.

This test is described as follows: Primary qHTS for Identification of Small Molecule Inhibitors of Huntingtin Promoter Activity. Also: nearly all actives have a fitted effect of over 50% in size. The following applies: HEK293 HTT promoter firefly luciferase reporter (activity 0% = vehicle and -100% = no light), 24 h; series mostly up to 57.5 µM; activity change, negative = inhibition: at the top concentration. The procedure, abridged: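 Quantitative HTS used concentration series of up to 57.5 uM final on HEK293 luciferase reporter cells, 24 h at 37 degrees C. Readout was Dual-Glo firefly luminescence.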
For orientation: qHTS replaces the single test concentration by a dilution series.
Consider `CNC(=O)C1CCC(Cn2c(=O)c3sccc3n(CC(=O)NCc3ccc(C)cc3)c2=O)CC1` (stereo unspecified), for which the “activity change, negative = inhibition” value is inactive: -13.7%.

As for `Cn1c(=O)oc2cc(S(=O)(=O)N3CCCC(C(=O)NCc4ccccc4Cl)C3)ccc21` (stereo unspecified), the “activity change, negative = inhibition” value is inactive: -15.2%.

In the case of `COc1ccc(NC(=O)Cn2c(=O)oc3cc(Cl)ccc32)c(OC)c1`, the “activity change, negative = inhibition” value was inactive: -2.83%.

Take `CCc1ccc(NC(=O)CSc2nc(C)c(C(=O)Nc3ccc(Cl)cc3)c(-c3ccc(OC)cc3)c2C#N)cc1`: the “activity change, negative = inhibition” value is inactive: -12.2%.

For the molecule `Cc1ccc(C)c(NC(=O)CCCn2c(C)c3cnn(-c4ccccc4)c(=O)c3c2C)c1`, the “activity change, negative = inhibition” value is inactive: -19.1%.

Consider `O=C(CSc1nc2c([nH]c3ccccc32)c(=O)n1-c1ccc(F)cc1)NCC1CCCO1` (stereo unspecified), for which the “activity change, negative = inhibition” value is inactive: -18.1%.

As for `O=C(CSc1nc2c([nH]c3ccccc32)c(=O)n1-c1ccccc1)N1CCCc2ccccc21`, the “activity change, negative = inhibition” value is inactive: 7.55%.

Turning to `Cc1cccc(NC(=O)c2cc(CN3CCOCC3)on2)c1C`, the “activity change, negative = inhibition” value is inactive: 2.69%.

Turning to `Cc1cccc(S(=O)(=O)c2cn(C)c3cc(N4CCCCCC4)c(F)cc3c2=O)c1`, the “activity change, negative = inhibition” value was inactive: -12.3%.

In the case of `COc1ccc(NC(=O)Cn2nc3c(cc2=O)CCCC3)cc1Cl`, the “activity change, negative = inhibition” value is inactive: -12.5%.

`COc1cccc(C(=O)c2cn(CC(=O)Nc3cc(Cl)c(OC)cc3OC)c3nc(C)ccc3c2=O)c1`: the “activity change, negative = inhibition” value was inactive: -9.54%.

Regarding `Cc1nc(N2CCCC2)ncc1C(=O)NCc1ccc(Cl)cc1`, the “activity change, negative = inhibition” value is inactive: -17%.

`CC1=C(c2ccc(F)cc2)S(=O)(=O)N=C1N1CCC(C(=O)NCCc2ccccc2)CC1`: the “activity change, negative = inhibition” value is inactive: -10.8%.

Consider `O=C(NCc1ccc(Cl)cc1)c1cc2ccc3cccnc3c2[nH]1`, for which the “activity change, negative = inhibition” value is inactive: 8.46%.

As to `COc1ccccc1N1CCN(S(=O)(=O)c2ccc(-c3ccno3)cc2OC)CC1`, the “activity change, negative = inhibition” value was inactive: -19.8%.

On to `Cc1ccc(NC(=O)NCCOCCn2c(=O)oc3ccccc32)c(C)c1`, for which the “activity change, negative = inhibition” value was inactive: -9.18%.

`CC(C)c1ccc(Cc2cn3cc(-c4cc5ccccc5oc4=O)nc3s2)cc1`: the “activity change, negative = inhibition” value was inactive: -35%.

On to `COc1cccc(-n2c(SCC(=O)Nc3cccc(C)c3)nc3c([nH]c4ccccc43)c2=O)c1`, for which the “activity change, negative = inhibition” value was inactive: -29.2%.

With `Cc1ccc(C)c(NC(=O)C2CCN(c3ncnc4c3nc3n4CCCCC3)CC2)c1`, the “activity change, negative = inhibition” value was inactive: -2.29%.

In the case of `Cc1cccc(C)c1NC(=O)NCCCN1CCN(c2ccccc2)CC1`, the “activity change, negative = inhibition” value is inactive: -9.7%.

Turning to `CCc1ccccc1NC(=O)CC(C)S(=O)(=O)c1ccc2c(c1)NC(=O)CO2` (stereo unspecified), the “activity change, negative = inhibition” value was inactive: -8.37%.

On to `CCc1ccc2occ(CC(=O)Nc3nnc(C)s3)c2c1`, for which the “activity change, negative = inhibition” value is inactive: -7.73%.

Regarding `CCNC(=O)C1CCN(c2nc3ccccc3nc2C(F)(F)F)CC1`, the “activity change, negative = inhibition” value is inactive: -3.54%.

As to `O=C(CSc1nc2c([nH]c3ccccc32)c(=O)n1-c1ccccc1)NCc1ccc(F)cc1`, the “activity change, negative = inhibition” value is inactive: -25.5%.

`O=C(CN1C(=O)C2(SCC(=O)N2c2ccccc2)c2ccccc21)Nc1ccccc1C(F)(F)F` (stereo unspecified): the “activity change, negative = inhibition” value was inactive: -17.5%.

In the case of `CC(=O)c1nn(-c2ccc(OC(F)(F)F)cc2)nc1Nc1ccc(Cl)cc1`, the “activity change, negative = inhibition” value is inactive: 2.12%.
